In the supplement of paper PMC3334620:
In all, about 33,000 sequences were measured (“E-score (-0.5 to 0.5)”: median about -0.043, highest 2% from about 0.37 on). Some of the results follow.

The sequences below were run against T1, Upc2 (UniProt Q12151) (assay: PBM E-score (8-mer binding enrichment) (E-score (-0.5 to 0.5)); higher = stronger / more preferred TF binding; most listed sequences are background and not binding sites). Conditions: protein concentration: 200 nM; construct: GST-full length.
T1 sequence: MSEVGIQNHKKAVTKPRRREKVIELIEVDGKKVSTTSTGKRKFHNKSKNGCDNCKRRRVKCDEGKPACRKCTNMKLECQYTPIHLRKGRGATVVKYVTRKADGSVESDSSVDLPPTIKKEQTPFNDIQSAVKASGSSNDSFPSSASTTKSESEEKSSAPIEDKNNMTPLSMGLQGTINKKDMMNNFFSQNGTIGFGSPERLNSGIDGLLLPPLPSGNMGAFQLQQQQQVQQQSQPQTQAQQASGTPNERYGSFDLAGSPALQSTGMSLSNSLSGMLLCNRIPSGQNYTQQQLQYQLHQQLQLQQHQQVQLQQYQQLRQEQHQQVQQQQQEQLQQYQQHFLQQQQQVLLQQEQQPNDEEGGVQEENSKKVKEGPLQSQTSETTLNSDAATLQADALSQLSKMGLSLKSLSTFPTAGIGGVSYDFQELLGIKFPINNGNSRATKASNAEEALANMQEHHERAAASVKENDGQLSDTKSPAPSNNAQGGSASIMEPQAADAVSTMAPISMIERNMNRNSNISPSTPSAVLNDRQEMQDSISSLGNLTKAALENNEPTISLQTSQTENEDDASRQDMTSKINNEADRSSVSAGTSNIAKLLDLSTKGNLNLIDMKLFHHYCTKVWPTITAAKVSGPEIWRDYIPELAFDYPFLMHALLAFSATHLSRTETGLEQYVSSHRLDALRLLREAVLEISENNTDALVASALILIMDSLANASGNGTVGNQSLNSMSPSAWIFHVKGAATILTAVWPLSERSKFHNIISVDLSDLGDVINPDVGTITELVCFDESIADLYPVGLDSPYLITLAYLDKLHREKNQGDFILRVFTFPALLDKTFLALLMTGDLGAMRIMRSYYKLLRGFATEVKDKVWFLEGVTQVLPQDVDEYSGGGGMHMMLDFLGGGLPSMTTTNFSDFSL
Summary of the method: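 Bound GST-tagged yeast transcription factors, applied at about 100-200 nM to double-stranded universal all-10-mer Agilent arrays, were detected with fluorescent anti-GST. Scans were normalised with masliner. A modified Wilcoxon-Mann-Whitney statistic, the E-score, was assigned to each ungapped eight-base word pooled with its reverse complement by the Universal PBM Analysis Suite.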

| Sequence | PBM E-score |
| --- | --- |
| AACGTTAC | 0.134 |
| AACTATAC | 0.323 |
| GCGATGCA | -0.105 |
| GAAGATCA | 0.237 |
| ATTGGATG | 0.03 |
| AGGTCTTC | -0.234 |
| GATCTTTA | 0.101 |
| GACCACCA | -0.247 |
| AATGGAGT | -0.266 |
| ACCTAGCT | -0.187 |
| ATGTCCTG | -0.138 |
| AAAATCAT | 0.0215 |
| TCAGACAA | -0.17 |
| CAGATAAA | -0.0555 |
| GGGCGATA | -0.131 |
| GTGCCCCA | -0.206 |
| AATTTCTA | 0.0252 |
| AAACCCGG | -0.0476 |
| ATTCTGGA | -0.0119 |
| CGAGGAAC | 0.304 |
| AGAAATGC | 0.0091 |
| ACTATTAA | 0.0336 |
| AAGCAGCA | -0.0232 |
| ATTAGTCA | -0.0731 |
| AATATCGG | 0.124 |

| Sequence | PBM E-score |
| --- | --- |
| GTTGCCAA | 0.0503 |
| CGGTCTGA | -0.129 |
| AATCGCAG | -0.0857 |
| CGTGTACC | 0.116 |
| CACATACG | 0.401 |
| CAGTTGGC | -0.216 |
| ACGCGATA | 0.198 |
| GGCCATTA | -0.219 |
| GACGTTAA | 0.154 |
| TCAACTAA | -0.0513 |
| ACGATAGG | 0.213 |
| AGAGTAAC | -0.0308 |
| GTCTGGCA | -0.266 |
| AACTTAGG | -0.188 |
| GAGACGAC | 0.00414 |
| CAAATTAC | 0.0461 |
| CTTAGGAA | -0.0438 |
| TGTTCAAA | -0.0111 |
| AGGTGTCA | -0.138 |
| GGGTGCGA | 0.112 |
| CCATACAA | -0.09 |
| AAAAATCA | -0.0828 |
| GTTCAGGA | 0.266 |
| CCGAAAAA | 0.0605 |
| CACTTTCC | -0.336 |

| Sequence | PBM E-score |
| --- | --- |
| ACCCGAAG | -0.04 |
| GCGTTAGC | -0.115 |
| AACAATCA | -0.0313 |
| ATGAATTC | -0.0133 |
| AAACCCAA | -0.144 |
| CAATCACA | 0.049 |
| ATCATAGG | -0.149 |
| TGTGTAAA | 0.0616 |
| ACCGTAGT | 0.114 |
| GGCCTACA | -0.138 |
| CCGTACAG | 0.418 |
| AAAATCGC | 0.0632 |
| CGGGGAAC | 0.028 |
| CCAAACTC | 0.024 |
| AACGCTCG | 0.23 |
| GATGGGGC | -0.237 |
| ACCCGCGC | -0.022 |
| CGACCTAC | 0.0511 |
| ATACCGTA | 0.282 |
| GGGTCTAA | -0.293 |
| GTCGGGTA | 0.16 |
| CTTAGATA | -0.0328 |
| ATGGCCAT | -0.285 |
| AATCGCCT | 0.0288 |
| CTGTTCGC | 0.112 |

| Sequence | PBM E-score |
| --- | --- |
| GTTACTAA | 0.0742 |
| GCCCACCC | 0.00994 |
| CTGGGGTA | -0.194 |
| ACGGGAAT | 0.219 |
| CTATTGTC | -0.237 |
| ACCAAGTA | 0.0592 |
| TCCTCTCA | -0.23 |
| GATGGAAA | -0.15 |
| GTTGTGAA | 0.00742 |
| CCGGATAA | 0.0395 |
| GGGTTCAA | -0.157 |
| ATTTTTCG | 0.0906 |
| CTCTCCCA | -0.28 |
| GTTGGAGA | -0.0488 |
| ACGGCAGG | -0.0437 |
| ATTTACTA | 0.0955 |
| GTATATGA | 0.212 |
| ATCTATAA | 0.21 |
| AAAGCATA | 0.0898 |
| GGGCTCCA | -0.29 |
| CATATTCC | -0.1 |
| CAGGTACA | -0.226 |
| CCACCCAG | -0.167 |
| AACTACAC | 0.00334 |
| CCGCCAAA | 0.0518 |

| Sequence | PBM E-score |
| --- | --- |
| TACACAAA | 0.184 |
| GCTCTTAA | 0.108 |
| GGGGTAGA | -0.138 |
| CCTGTGAA | 0.0145 |
| GTATGGAA | 0.0901 |
| GATAGTCA | 0.0712 |
| AATAGCTA | 0.0695 |
| GCGGATAA | -0.0351 |
| AACTCAGT | -0.192 |
| GACCAAAA | 0.193 |
| CCCGGGGC | -0.0224 |
| ATGTACAC | -0.0421 |
| GAACCATC | 0.0879 |
| CACGCGGA | -0.0824 |
| CCCTGACG | -0.32 |
| ATGCTAAT | -0.00717 |
| CATTAAAA | 0.011 |
| CGTGATGA | -0.0973 |
| GAGCTTAC | 0.0339 |
| GGAGGCCC | -0.179 |
| CGCCGGGC | -0.111 |
| AAGTCGCT | 0.0332 |
| CGGCTCAA | -0.134 |
| TCACCTCA | -0.197 |
| TATTGTAA | -0.00777 |

| Sequence | PBM E-score |
| --- | --- |
| ATTGGCTG | -0.24 |
| GGATTCAC | -0.0907 |
| AGGCCTCC | -0.19 |
| GCTAACCA | -0.148 |
| AGCCCTAG | -0.322 |
| CTGACCAC | -0.084 |
| GCCAAGAC | -0.154 |
| ATTCGCCA | -0.123 |
| CTTCGAGC | -0.09 |
| AAAATCTC | 0.0527 |
| CCCAGGGG | -0.328 |
| ACAAGACT | -0.00931 |
| GGTAGCCA | 0.0405 |
| AGAGCAGG | -0.142 |
| TATCGAGA | 0.0859 |
| CCCGCTCC | -0.0825 |
| CAGGCACG | -0.189 |
| AGATTGGC | 0.0146 |
| AAGGCCGC | -0.0622 |
| CGGGGTTA | 0.17 |
| GGTTGCGA | 0.0967 |
| AAGTTGCG | 0.0949 |
| AATGTTGC | 0.0599 |
| ATAGCAAT | -0.00605 |
| ACGTTCGA | 0.0231 |

| Sequence | PBM E-score |
| --- | --- |
| AAAATGTA | 0.0315 |
| ATGACCAG | -0.182 |
| AGATGAAC | 0.0276 |
| CTTGATTA | -0.25 |
| CTATATCA | -0.0561 |
| GGTGGACA | -0.215 |
| AAATTCGG | -0.025 |
| ATAGAGTG | -0.00397 |
| GCTAGAGA | 0.0839 |
| AAAATAGG | -0.0506 |
| CCGGCGCC | -0.106 |
| GAGATGAA | -0.0684 |
| GAAAGACC | -0.204 |
| CGACTCTC | 0.179 |
| ACGGTTCG | 0.159 |
| CTGTGTAA | -0.0366 |
| TAGGGAAA | -0.105 |
| AATCATAT | 0.00493 |
| CAGGATAC | 0.035 |
| CTTTCATA | 0.0603 |
| AAGCCTCC | -0.2 |
| GTGACAAC | -0.102 |
